# Some of the results follow. The list includes weakly bound sequences.
# Molecular target: MaxL homodimer (UniProt P61244)
# Assay: universal protein-binding microarray (PBM)
# Conditions: PBS-based mixture, 10 nM His-tagged protein dimer, 2% milk, 200 ng/uL BSA, 50 ng/uL salmon testes DNA, 0.02% TX-100; detection with Alexa 488 anti-His …; high values mean tight binding; most listed sequences are background and not binding sites; double strand, one strand shown
# Chain of UniProt P61244 (P61244 whole entry): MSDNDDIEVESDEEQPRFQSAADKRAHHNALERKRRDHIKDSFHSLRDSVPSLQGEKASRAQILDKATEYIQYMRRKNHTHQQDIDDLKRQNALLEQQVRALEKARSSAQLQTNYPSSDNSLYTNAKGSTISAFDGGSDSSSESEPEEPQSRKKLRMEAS
row,Sequence,binding signal (normalized occupancy)
1,CGGAGGAC,0.0712
2,AGGGGCAA,0.0757
3,GTCTGCTA,0.0705
4,CAGCGCAA,0.0707
5,AAGTCTGA,0.0731
6,AATTAACG,0.0697
7,AGATGGGG,0.0806
8,GAGCACAA,0.0775
9,GCTAACAC,0.0758
10,GACCTCCC,0.0734
11,CAGCGGTC,0.0711
12,ATATTTAA,0.0836
13,GAAACGCC,0.0758
14,AGTTTCAA,0.0702
15,AAAAAACA,0.0761
16,AAAGATGT,0.0764
17,AACCTATG,0.0754
18,CCGGACAA,0.0738
19,CCATAGGC,0.0737
20,GTATGAAA,0.0778
21,CACCATTA,0.0833
22,AATAGGCG,0.0782
23,AGCGATTC,0.0746
24,AAGTTCGC,0.0678
25,GCAAGTGA,0.0726

row,Sequence,binding signal (normalized occupancy)
1,CTGTTCCC,0.0723
2,ACTGAGGG,0.0682
3,CTAAACTA,0.0783
4,CTAGACAC,0.0766
5,AGGGTGAG,0.0746
6,CATCGACA,0.0766
7,CACGGCAA,0.0787
8,CTGCACTC,0.0768
9,CCTTGGCA,0.0761
10,CAAGGTCC,0.0744
11,TAATTTCA,0.0759
12,CTACGGAA,0.0718
13,ACCGCGAG,0.0729
14,ATTGTAAC,0.0837
15,GAGTCACA,0.0828
16,CGAATTTC,0.0754
17,GATATACC,0.0834
18,AATAAATA,0.0736
19,CTCAGTAC,0.0743
20,CACGACTA,0.0775
21,CACTAGGC,0.0738
22,ACTGAAGC,0.0715
23,AGTCGCCC,0.0692
24,GGTGTCAC,0.0829
25,CGGCAAAC,0.0699

row,Sequence,binding signal (normalized occupancy)
1,TATAATAA,0.0772
2,ACGGGTGG,0.0818
3,GCACTTCC,0.0736
4,CCACAAGA,0.0769
5,GCTGATAC,0.0767
6,CCTTGACC,0.0715
7,GCAATTCA,0.0722
8,AGCGGAGG,0.0684
9,ACCGCCGT,0.0684
10,AACATTGG,0.0794
11,GATCATGA,0.0863
12,CATGTCGA,0.0903
13,ACTCCCAT,0.0864
14,AACTAGCT,0.0693
15,ATGAATCC,0.0822
16,ATGTTCTC,0.0739
17,CGGGATAA,0.0773
18,CCCGATTA,0.0768
19,AGTGGTCA,0.0751
20,CCGTTTCC,0.0708
21,GCGCACGA,0.093
22,CCCTAACG,0.0797
23,AATAGTAC,0.072
24,AAATGGGT,0.0763
25,ACGGGGCC,0.0746

row,Sequence,binding signal (normalized occupancy)
1,ATGCGTGC,0.0969
2,GGGACACA,0.0736
3,ACCGTGAA,0.0721
4,CCGATTAC,0.0729
5,GCGGGTCA,0.0811
6,AACCGCTA,0.0726
7,ACAGGACT,0.0726
8,ACTGCAAA,0.0709
9,CATCTGAG,0.0821
10,AGGGACGA,0.0704
11,AAGAAGAA,0.07
12,ACACTGGT,0.0781
13,TCACTCGA,0.0746
14,CGATAGTA,0.0757
15,AGTAATTG,0.0708
16,GGATCTCA,0.0742
17,TCACATGA,0.109
18,ATGCTGGC,0.0864
19,CCTGACTA,0.0777
20,CCTCCAAA,0.0742
21,AACCCATA,0.0815
22,ACTACCCT,0.0795
23,CCTCGCCA,0.074
24,CATACCGA,0.08
25,ATTAAACA,0.0726

row,Sequence,binding signal (normalized occupancy)
1,CCAGGTGA,0.0867
2,CGTTATAA,0.079
3,GACCACTA,0.0785
4,TCAAAAAA,0.0703
5,TCCGCCAA,0.0678
6,GAGCTACC,0.0676
7,GATTTGAA,0.076
8,TGGAACAA,0.0712
9,CACTGTCC,0.0763
10,CCATCACG,0.0857
11,AGAGCTGC,0.0725
12,AGGTACAT,0.0821
13,CTAGCTAC,0.0765
14,GGACAGAC,0.0754
15,ACAGCATG,0.127
16,GTCCGCAC,0.0754
17,AAAGTGAG,0.0728
18,CAGTTCAG,0.0712
19,GGTAGTAA,0.0771
20,GGATTACC,0.075
21,CATCTAAC,0.0854
22,CAACTCGA,0.0755
23,TCTATACA,0.0873
24,AATCGCAC,0.0779
25,AATGACAT,0.0822

row,Sequence,binding signal (normalized occupancy)
1,AAACTCAC,0.0759
2,CGTTGTAA,0.0757
3,GTATGCCA,0.0806
4,GATGCAAA,0.0761
5,AAGAGAAA,0.0696
6,ACGGTTGG,0.0758
7,GCTGGTCC,0.0689
8,CTCAACGC,0.0793
9,AGAGTGAA,0.0757
10,AAGAACTC,0.0732
11,CGATTAAG,0.0743
12,AAATCCTT,0.0722
13,ACGCCAGA,0.0782
14,AGTCTACA,0.0708
15,AGGGCACT,0.0712
16,CATACGCA,0.0827
17,ATTAGCAG,0.075
18,GTGCTCGA,0.0761
19,TAGTTTGA,0.0723
20,GGAAATCC,0.0712
21,ATAGGTGA,0.0833
22,CCGCACAG,0.0705
23,CCGGCTGA,0.0672
24,AGTTCAAG,0.0686
25,AGCAGTCG,0.068

row,Sequence,binding signal (normalized occupancy)
1,GCAGCTCC,0.0685
2,CGAGGGAA,0.0785
3,GCATGCAC,0.11
4,CGCAGAAG,0.0673
5,ATTTCGAA,0.0735
6,CACACCGC,0.0826
7,GTACTCTA,0.0757
8,CAGGCGTC,0.0727
9,ACCACCTA,0.082
10,AACAAACG,0.0769
11,CCCAGTCA,0.0744
12,GACCGAGC,0.0684
13,AACGCGGA,0.0818
14,CAGGAGCG,0.0709
15,CCCTTACA,0.0789
16,GCTCTGCA,0.0703
17,ATCCAAGA,0.0702
18,TCGGTGAA,0.0747
19,TTCCAGAA,0.0713
20,ACTCTCAA,0.0735
21,ATGCATCC,0.0863
22,CATAGACC,0.0735

# Source: PMC4242493
